# Data published in patent EP3057951B1, “METHYLENE LINKED QUINOLINYL MODULATORS OF ROR-GAMMA-T” (Janssen Pharmaceutica NV, priority 2013, dated 2015).
# Like-named read-outs stand apart in the source and are kept apart here.
# Tested on: IL-17 production by CD4 T cells
# Experiment: Human Th17 Assay (IL-17 production under Th17 differentiation conditions)
# [1] = read-out: Human Th17 Assay, IC50, IL-17 production, CD4 T cells, 3 days
# [2] = Homo sapiens, CD4+ T, 72 h, read-out: Human Th17 Assay, IC50, IL-17 production, CD4 T cells, 3 days
SMILES,IC50 [1] [µM],IC50 [2] [µM]
"Cn1cncc1C(O)(c1ccc(C(F)(F)F)nc1)c1ccc2nc(N3CC(F)(F)C3)c(Cc3ccc(-n4cccn4)cc3)c(Cl)c2c1 (single isomer, unassigned) [Example 135b, {4-Chloro-2-(3,3-difluoroazetidin-1-yl)-3-[4-(1H-pyrazol-1-yl)benzyl]quinolin-6-yl}(1-methyl-1H-imidazol-5-yl)[6-(trifluoromethyl)pyridin-3-yl]methanol]",0.31,
"Cn1cc(-c2nc3ccc(C(O)(c4ccc(C(F)(F)F)nc4)c4cncn4C)cc3c(C#N)c2Cc2ccccc2)cn1 (single isomer, unassigned) [Example 112b, 3-Benzyl-6-(hydroxy(1-methyl-1H-imidazol-5-yl)(6-(trifluoromethyl)pyridin-3-yl)methyl)-2-(1-methyl-1H-pyrazol-4-yl)quinoline-4-carbonitrile]",,2.8
"COc1nc2ccc(C(O)(c3oc(C)nc3C)c3cnnn3C)cc2c(Cl)c1Cc1ccc(C(F)(F)F)cc1 (single isomer, unassigned) [Example 156c, (4-chloro-2-methoxy-3-(4-(trifluoromethyl)benzyl)quinolin-6-yl)(2,4-dimethylozazol-5-yl)(1-methyl-1H-1,2,3-triazol-5-yl)methanol]",0.0033,
"COc1c(Cc2ccccc2)c(C(F)(F)F)nc2ccc(C(O)(c3ccc(Cl)cc3)c3cncn3C)cc12 (single isomer, unassigned) [Example 101b]",,0.03
"CC(=O)N1CCC(C(O)(c2ccc(C(F)(F)F)nc2)c2cc(C)c3nc(C#N)c(Cc4ccc(-n5cccn5)cc4)c(C#N)c3c2)CC1 (single isomer, unassigned) [Example 79c, 3-(4-(1H-Pyrazol-1-yl)benzyl)-6-((1-acetylpiperidin-4-yl)(hydroxy)(6(trifluoromethyl)pyridin-3-yl)methyl)-8-methylquinoline-2,4-dicarbonitrile]",,0.42

# Next, values leading:
IC50 [1] [µM],IC50 [2] [µM],SMILES
,0.0062,"Cc1ccc(C(O)(c2ccc3nc(N4CC(F)(F)C4)c(Cc4ccc(C(F)(F)F)cc4)c(Cl)c3c2)c2cnnn2C)c(C)n1 (single isomer, unassigned) [Example 148c, {4-Chloro-2-(3,3-difluoroazetidin-1-yl)-3-[4-(trifluoromethyl)benzyl]quinolin-6-yl}(2,6-dimethylpyridin-3-yl)(1-methyl-1H-1,2,3-triazol-5-yl)methanol]"
0.22,,"COc1nc2ccc(C(O)(c3cc(C)nc(C)c3)c3cnnn3C)cc2c(Cl)c1Cc1ccc(C(F)(F)F)cc1 (single isomer, unassigned) [Example 84b, (4-Chloro-2-methoxy-3-(4-(trifluoromethyl)benzyl)quinolin-6-yl)(2,6-dimethylpyridin-4-yl)(1-methyl-1H-1,2,3-triazol-5-yl)methanol]"
,0.007,"COc1nc2ccc(C(O)(c3cnnn3C)c3cnc(C)n3C)cc2c(Cl)c1Cc1ccc(F)cc1 (single isomer, unassigned) [Example 65c]"
,0.03,"COc1nc2ccc(C(O)(c3sc(C)nc3C)c3cnnn3C)cc2cc1Cc1ccc(C(F)(F)F)cc1 (single isomer, unassigned) [Example 92c, (2,4-Dimethylthiazol-5-yl)(2-methoxy-3-(4-(trifluoromethyl)benzyl)quinolin-6-yl)(1-methyl-1H-1,2,3-triazol-5-yl)methanol]"
,0.014,"COc1nc2ccc(C(O)(c3ccccc3)C3CCN(C(C)=O)CC3)cc2c(Cl)c1Cc1ccc(-n2cncn2)cc1 (single isomer, unassigned) [Example 18b, 1-(4-((3-(4-(1H-1,2,4-Triazol-1-yl)benzyl)-4-chloro-2-methoxyquinolin-6-yl)(hydroxy)(phenyl)methyl)piperidin-1-yl)ethanone]"
,0.0047,"COc1nc2ccc(C(O)(c3ccc(C)nc3C)c3cnnn3C)cc2c(Cl)c1Cc1ccc(N(C)C)cc1 (single isomer, unassigned) [Example 24c, (4-Chloro-3-(4-(dimethylamino)benzyl)-2-methoxyquinolin-6-yl)(2,6-dimethylpyridin-3-yl)(1-methyl-1H-1,2,3-triazol-5-yl)methanol]"
